Source: the supplement of paper PMC4967469
A lower IC50 marks a more sensitive line; where the fit passes the top or lowest dose, that dose stands as a limit. The AUC spans the tested range (256-fold, ending at the top dose) of the same fit; it is 1 without any effect and falls as sensitivity rises. A top dose marked as inferred comes from the curve model; the source does not state it.

Columns and labels:
FK866 = compound: O=C(/C=C/c1cccnc1)NCCCCC1CCN(C(=O)c2ccccc2)CC1 [FK866]; assay: Viability of human cancer cell lines after 72 h of drug (GDSC screen); conditions: top dose 1 µM; top dose inferred
Protocol: (§1)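 Human cancer cell lines in 384-well plates, medium with 10% serum, drug for 72 h over a 256-fold dose range (nine 2-fold or five 4-fold steps up to the top dose). Adherent lines were fixed and stained with the nucleic acid dye Syto60, suspension lines read with resazurin; signal relative to control wells, capped at 0 and 100%. One two-parameter sigmoid per drug and line, fitted in a mixed model over all curves with the slope shared within a line.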

FR-180204 = compound: Nc1[nH]nc2nnc(-c3c(-c4ccccc4)nn4ccccc34)cc12 [FR-180204]; assay: as above; conditions: top dose 20 µM; top dose inferred
Protocol: as §1

Cell Line	AUC (FK866)	IC50 (FK866)	AUC (FR-180204)	IC50 (FR-180204)
OVCAR-5 (ovary, adherent)	0.131	< 3.91 nM	0.929	> 20000 nM
OVCAR-8 (ovary, adherent)	0.065	< 3.91 nM	0.959	> 20000 nM
OVISE (ovary, adherent)	0.741	392 nM	0.944	> 20000 nM
OVK-18 (ovary, adherent)	0.144	4.14 nM	0.975	> 20000 nM
OVKATE (ovary, adherent)	0.951	> 1000 nM	0.923	> 20000 nM
OVMIU (ovary, adherent)	0.85	> 1000 nM	0.901	> 20000 nM
OVTOKO (ovary, adherent)	0.694	257 nM	0.954	> 20000 nM
P12-ICHIKAWA (T-cell lymphoblastic leukaemia, suspension)	0.017	< 3.91 nM	0.994	> 20000 nM
P30-OHK (lymphoblastic leukaemia, suspension)	0.018	< 3.91 nM	0.948	> 20000 nM
P31-FUJ (acute myeloid leukaemia, suspension)	0.174	9.21 nM	0.995	> 20000 nM
P32-ISH (Burkitt lymphoma, suspension)	0.021	< 3.91 nM	0.995	> 20000 nM
PA-TU-8902 (pancreas, adherent)	0.559	93.3 nM	0.978	> 20000 nM
PA-TU-8988T (pancreas, adherent)	0.109	< 3.91 nM	0.975	> 20000 nM
PANC-02-03 (pancreas, adherent)	0.535	79.2 nM	0.909	> 20000 nM
PANC-03-27 (pancreas, adherent)	0.756	321 nM	0.955	> 20000 nM
PANC-04-03 (pancreas, adherent)	0.853	> 1000 nM	0.959	> 20000 nM
PANC-08-13 (pancreas, adherent)	0.895	> 1000 nM	0.899	> 20000 nM
PANC-10-05 (pancreas, adherent)	0.836	951 nM	0.957	> 20000 nM
PC-3 (prostate, adherent)	0.362	23.7 nM	0.954	> 20000 nM
PC-3 [JPC-3] (lung adenocarcinoma, adherent)	0.839	> 1000 nM	0.843	> 20000 nM
PC-14 (lung adenocarcinoma, adherent)	0.496	61.1 nM	0.927	> 20000 nM
PCI-4B (head and neck, adherent)	0.151	5.65 nM	0.983	> 20000 nM
PCI-6A (head and neck, adherent)	0.881	> 1000 nM	0.953	> 20000 nM
PCI-15A (head and neck, adherent)	0.495	60.4 nM	0.987	> 20000 nM
PCI-30 (head and neck, adherent)	0.733	342 nM	0.974	> 20000 nM

Cell Line	AUC (FK866)	IC50 (FK866)	AUC (FR-180204)	IC50 (FR-180204)
PCI-38 (head and neck, adherent)	0.353	24.4 nM	0.986	> 20000 nM
PE/CA-PJ15 (head and neck, adherent)	0.375	27.5 nM	0.98	> 20000 nM
PEO1 (ovary, adherent)	0.985	> 1000 nM	0.986	> 20000 nM
PF-382 (T-cell lymphoblastic leukaemia, suspension)	0.035	< 3.91 nM	0.985	> 20000 nM
PL4 (pancreas, adherent)	0.337	21.6 nM	0.97	> 20000 nM
PL18 (pancreas, adherent)	0.791	445 nM	0.981	> 20000 nM
PL-21 (acute myeloid leukaemia, suspension)	0.221	8.11 nM	0.883	> 20000 nM
PSN1 (pancreas, adherent)	0.164	7.52 nM	0.921	> 20000 nM
QGP-1 (pancreas, adherent)	0.473	50.6 nM	0.918	> 20000 nM
QIMR-WIL (acute myeloid leukaemia, suspension)	0.117	< 3.91 nM	0.964	> 20000 nM
RC-K8 (B-cell lymphoma, suspension)	0.327	22.1 nM	0.993	> 20000 nM
RCC-AB (kidney, adherent)	0.894	> 1000 nM	0.913	> 20000 nM
RCC-ER (kidney, adherent)	0.934	> 1000 nM	0.985	> 20000 nM
RCC-FG2 (kidney, adherent)	0.91	> 1000 nM	0.955	> 20000 nM
RCC-JF (kidney, adherent)	0.423	37.3 nM	0.95	> 20000 nM
RCC-JW (kidney, adherent)	0.17	6 nM	0.96	> 20000 nM
RCC-MF (kidney, adherent)	0.586	115 nM	0.881	> 20000 nM
RCM-1 (large intestine, adherent)	0.888	> 1000 nM	0.982	> 20000 nM
RD (rhabdomyosarcoma, adherent)	0.212	8.07 nM	0.976	> 20000 nM
REH (B-cell leukaemia, suspension)	0.036	< 3.91 nM	0.958	> 20000 nM
RERF-GC-1B (stomach, adherent)	0.976	> 1000 nM	0.904	> 20000 nM
RERF-LC-KJ (lung adenocarcinoma, adherent)	0.974	> 1000 nM	0.983	> 20000 nM
RERF-LC-MS (lung adenocarcinoma, adherent)	0.316	18.8 nM	0.945	> 20000 nM
RERF-LC-Sq1 (lung squamous cell carcinoma, adherent)	0.884	> 1000 nM	0.955	> 20000 nM
RF-48 (stomach, adherent)	0.256	11.3 nM	0.897	> 20000 nM

Cell Line	AUC (FK866)	IC50 (FK866)	AUC (FR-180204)	IC50 (FR-180204)
RH-1 (rhabdomyosarcoma, adherent)	0.076	< 3.91 nM	0.936	> 20000 nM
RH-41 (rhabdomyosarcoma, adherent)	0.042	< 3.91 nM	0.991	> 20000 nM
RKN (ovary, adherent)	0.984	> 1000 nM	0.944	> 20000 nM
RKO (large intestine, adherent)	0.987	> 1000 nM	0.982	> 20000 nM
RL95-2 (endometrium, adherent)	0.075	< 3.91 nM	0.987	> 20000 nM
RL (B-cell lymphoma, suspension)	0.927	> 1000 nM	0.974	> 20000 nM
RMG-I (ovary, adherent)	0.678	215 nM	0.929	> 20000 nM
RO82-W-1 (thyroid, adherent)	0.869	> 1000 nM	0.983	> 20000 nM
ROS-50 (B-cell leukaemia, suspension)	0.245	9.19 nM	0.979	> 20000 nM
RPMI-2650 (head and neck, adherent)	0.276	13.6 nM	0.971	> 20000 nM
RPMI-6666 (Hodgkin lymphoma, suspension)	0.303	15.5 nM	0.944	> 20000 nM
RPMI-8402 (T-cell lymphoblastic leukaemia, suspension)	0.985	> 1000 nM	0.973	> 20000 nM
RPMI-8866 (chronic myeloid leukaemia, suspension)	0.037	< 3.91 nM	0.965	> 20000 nM
RS4-11 (leukaemia, suspension)	0.026	< 3.91 nM	0.949	> 20000 nM
RT4 (bladder, adherent)	0.986	> 1000 nM	0.957	> 20000 nM
RT-112 (bladder, adherent)	0.351	23.3 nM	0.957	> 20000 nM
RVH-421 (melanoma, adherent)	0.728	361 nM	0.849	> 20000 nM
RXF393 (kidney, adherent)	0.965	> 1000 nM	0.969	> 20000 nM
Raji (Burkitt lymphoma, suspension)	0.1	< 3.91 nM	0.99	> 20000 nM
Ramos-2G6-4C10 (Burkitt lymphoma, suspension)	0.05	< 3.91 nM	0.984	> 20000 nM
SAS (head and neck, adherent)	0.376	27.3 nM	0.921	> 20000 nM
SBC-1 (small cell lung carcinoma, suspension)	0.197	8.22 nM	0.989	> 20000 nM
SBC-3 (small cell lung carcinoma, adherent)	0.024	< 3.91 nM	0.975	> 20000 nM
SBC-5 (small cell lung carcinoma, adherent)	0.234	12.8 nM	0.993	> 20000 nM
SCC-4 (head and neck, adherent)	0.852	> 1000 nM	0.974	> 20000 nM

Cell Line	AUC (FK866)	IC50 (FK866)	AUC (FR-180204)	IC50 (FR-180204)
SCC-9 (head and neck, adherent)	0.954	> 1000 nM	0.939	> 20000 nM
SCC-15 (head and neck, adherent)	0.689	256 nM	0.977	> 20000 nM
SCC-25 (head and neck, adherent)	0.917	> 1000 nM	0.965	> 20000 nM
SCH (stomach, adherent)	0.35	23.2 nM	0.988	> 20000 nM
SF126 (glioma, adherent)	0.088	< 3.91 nM	0.982	> 20000 nM
SF268 (glioma, adherent)	0.151	4.66 nM	0.972	> 20000 nM
SF295 (glioma, adherent)	0.183	6.35 nM	0.985	> 20000 nM
SF539 (glioma, adherent)	0.059	< 3.91 nM	0.977	> 20000 nM
SH-4 (melanoma, adherent)	0.508	66.5 nM	0.868	> 20000 nM
SHP-77 (small cell lung carcinoma, semi-adherent)	0.938	> 1000 nM	0.99	> 20000 nM
SIMA (neuroblastoma, adherent)	0.974	> 1000 nM	0.869	> 20000 nM
SISO (cervix, adherent)	0.172	6.73 nM	0.988	> 20000 nM
SJRH30 (rhabdomyosarcoma, adherent)	0.094	< 3.91 nM	0.986	> 20000 nM
SJSA-1 (bone, adherent)	0.146	4.11 nM	0.975	> 20000 nM
SK-CO-1 (large intestine, adherent)	0.909	> 1000 nM	0.95	> 20000 nM
SK-ES-1 (Ewing sarcoma, semi-adherent)	0.033	< 3.91 nM	0.944	> 20000 nM
SK-GT-4 (oesophagus, adherent)	0.591	118 nM	0.973	> 20000 nM
SK-HEP-1 (liver, adherent)	0.083	< 3.91 nM	0.985	> 20000 nM
SK-LMS-1 (soft tissue, adherent)	0.166	6.47 nM	0.987	> 20000 nM
SK-LU-1 (lung adenocarcinoma, adherent)	0.929	> 1000 nM	0.978	> 20000 nM
SK-MEL-1 (melanoma, suspension)	0.202	9.66 nM	0.989	> 20000 nM
SK-MEL-2 (melanoma, adherent)	0.404	33.6 nM	0.986	> 20000 nM
